Source: the supplement of paper PMC3334620
Whole data set: some 33,000 sequences, median “E-score (-0.5 to 0.5)” near -0.056, cut for the highest 2% near 0.38. This is one part of the list.

The sequences below were run against Stb4 (UniProt P50104) (assay: PBM E-score (8-mer binding enrichment) (E-score (-0.5 to 0.5)); higher = stronger / more preferred TF binding; most listed sequences are background and not binding sites). Conditions: protein concentration: 200 nM; construct: GST-DNA-binding domain.
Procedure, shortened: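 Yeast transcription factors carrying a GST tag, as full-length proteins or DNA-binding domains, were produced by PURExpress in vitro transcription/translation. About 100-200 nM protein was applied to universal all-10-mer Agilent arrays, double-stranded by primer extension on fresh or once-stripped slides. Bound protein was detected with fluorescent anti-GST, and scans were normalised with masliner. The Universal PBM Analysis Suite gave each ungapped eight-base word, pooled with its reverse complement, an E-score, a modified Wilcoxon-Mann-Whitney statistic.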
With CGCGTTTA the “PBM E-score” value was 0.0227.
AAGGAGAC was tested, and the “PBM E-score” value was -0.151.
In the case of CGAAGTCG, the “PBM E-score” value is reported as 0.263.
In the case of ACCATAGG, the “PBM E-score” value is reported as -0.262.
In the case of AATAAAAA, the “PBM E-score” value is reported as -0.015.
In the case of GAGTTAGA, the “PBM E-score” value is reported as -0.116.
In the case of GATGGTAA, the “PBM E-score” value is reported as -0.00489.
For AGTTGGCG, the “PBM E-score” value was -0.00026.
With GATTATCA the “PBM E-score” value was 0.0201.
For CGACGTCG, the “PBM E-score” value was 0.0065.
For GACAGAGA, the “PBM E-score” value was -0.129.
With TTCTGAAA the “PBM E-score” value was -0.219.
With ATACTGTA the “PBM E-score” value was 0.038.
CATTTGCC was tested, and the “PBM E-score” value was -0.0859.
For ACAACCGG, the “PBM E-score” value was 0.221.
In the case of GACGTCTA, the “PBM E-score” value is reported as -0.113.
In the case of CGAGTACC, the “PBM E-score” value is reported as 0.182.
For AGGCGCAC, the “PBM E-score” value was -0.139.
With AATGATAC the “PBM E-score” value was -0.023.
In the case of CACTTCAA, the “PBM E-score” value is reported as 0.113.
In the case of GGAAGGGA, the “PBM E-score” value is reported as 0.248.
With ACGGCCGC the “PBM E-score” value was 0.162.
For AGAAGGGA, the “PBM E-score” value was -0.357.
For GGAGGTTA, the “PBM E-score” value was 0.0576.
With AAACAACT the “PBM E-score” value was -0.0401.
With AAAGAGGA the “PBM E-score” value was -0.0941.
With GCCGAGCA the “PBM E-score” value was 0.357.
GTATATCA was tested, and the “PBM E-score” value was 0.0826.
AAATTAGC was tested, and the “PBM E-score” value was 0.0665.
With CGGTCAGC the “PBM E-score” value was -0.00346.
CACCTCCC was tested, and the “PBM E-score” value was 0.0238.
In the case of CTGCGTGC, the “PBM E-score” value is reported as -0.0566.
In the case of CCCTGCTC, the “PBM E-score” value is reported as -0.183.
In the case of GGAGACCA, the “PBM E-score” value is reported as 0.0477.
With CTCTAGGC the “PBM E-score” value was -0.0912.
CCGGACGG was tested, and the “PBM E-score” value was 0.311.
In the case of CACTGATC, the “PBM E-score” value is reported as -0.183.
With CGCCCTTA the “PBM E-score” value was -0.0598.
For CCTGAAAC, the “PBM E-score” value was 0.0689.
AGGGTGAA was tested, and the “PBM E-score” value was -0.074.
CATATTCA was tested, and the “PBM E-score” value was -0.211.
With CGGCATGA the “PBM E-score” value was 0.261.
For CTTTACCC, the “PBM E-score” value was 0.169.
GCATATAA was tested, and the “PBM E-score” value was 0.0369.
With CTCGCTCA the “PBM E-score” value was 0.0786.
For CACATTGC, the “PBM E-score” value was -0.122.
For ATCGGATA, the “PBM E-score” value was 0.467.
For CTGCCTTA, the “PBM E-score” value was -0.193.
CGTGATCC was tested, and the “PBM E-score” value was 0.00416.
For CTGGCGCC, the “PBM E-score” value was -0.169.
CACCCTAC was tested, and the “PBM E-score” value was -0.111.
For CGGGGAGA, the “PBM E-score” value was 0.137.
In the case of CCCTAAAG, the “PBM E-score” value is reported as -0.234.
With CTGAGCTC the “PBM E-score” value was -0.172.
For ATACGTGG, the “PBM E-score” value was -0.226.
In the case of CGTAGAAG, the “PBM E-score” value is reported as -0.00783.
In the case of GGTTTGAC, the “PBM E-score” value is reported as 0.0931.
With TAAATCCA the “PBM E-score” value was -0.168.
In the case of ATATCTGG, the “PBM E-score” value is reported as 0.0398.
In the case of ACTACGAC, the “PBM E-score” value is reported as -0.049.
For CTTCATTC, the “PBM E-score” value was -0.134.
In the case of CTCCGCAG, the “PBM E-score” value is reported as 0.0458.
With TATTGCAA the “PBM E-score” value was 0.101.
In the case of CGCAAAAG, the “PBM E-score” value is reported as -0.116.
CGTACCTA was tested, and the “PBM E-score” value was 0.0214.
With CGACTCAC the “PBM E-score” value was 0.0516.
For CATATCCC, the “PBM E-score” value was 0.0584.
GGAAGCAC was tested, and the “PBM E-score” value was 0.157.
For AGGGGAAT, the “PBM E-score” value was 0.0637.
With CTAGAGAA the “PBM E-score” value was -0.231.
In the case of CTTAGAGA, the “PBM E-score” value is reported as -0.159.
AAGCAAGG was tested, and the “PBM E-score” value was -0.0669.
In the case of AACCTCAG, the “PBM E-score” value is reported as 0.0119.
With TACCAGGA the “PBM E-score” value was 0.0625.
With TAAAGTCA the “PBM E-score” value was 0.0429.
ATGTAGCA was tested, and the “PBM E-score” value was -0.2.
With ACTATATG the “PBM E-score” value was -0.134.
In the case of TTAGTGAA, the “PBM E-score” value is reported as -0.138.
For CAAGGCCC, the “PBM E-score” value was -0.0273.
For AGAATCGG, the “PBM E-score” value was 0.286.
For CAAAAGAC, the “PBM E-score” value was -0.18.
With GATGCCCA the “PBM E-score” value was 0.168.
With GAGGATGC the “PBM E-score” value was -0.0384.
For CAGAGCAC, the “PBM E-score” value was -0.106.
With GATCTGGC the “PBM E-score” value was 0.00732.
For GGGGGCAC, the “PBM E-score” value was -0.0702.
In the case of ATCGGTGG, the “PBM E-score” value is reported as 0.0038.
For ATCCGATG, the “PBM E-score” value was 0.437.
For CCCCTTCC, the “PBM E-score” value was 0.0331.
With ATTCACAA the “PBM E-score” value was -0.0973.
ACTAAAGG was tested, and the “PBM E-score” value was -0.271.
GAATGGGC was tested, and the “PBM E-score” value was 0.0973.
CGCACGCG was tested, and the “PBM E-score” value was -0.0467.
In the case of GATAAGGC, the “PBM E-score” value is reported as 0.0112.
In the case of AAAAGGCG, the “PBM E-score” value is reported as -0.0778.
In the case of CCTAATCC, the “PBM E-score” value is reported as -0.103.
With AATAAATC the “PBM E-score” value was -0.105.
For GAGTTGAA, the “PBM E-score” value was 0.156.
For CATACGAA, the “PBM E-score” value was -0.102.
For CTTCCCGC, the “PBM E-score” value was 0.2.
With GTCCCCTA the “PBM E-score” value was -0.272.
For AGTGAACT, the “PBM E-score” value was -0.0504.
With AGGGCCCA the “PBM E-score” value was -0.181.
For ACCCATCA, the “PBM E-score” value was -0.194.
With AACTGGCT the “PBM E-score” value was -0.157.
In the case of AGAGCGGG, the “PBM E-score” value is reported as -0.0101.
In the case of CGAAGGCC, the “PBM E-score” value is reported as 0.105.
CGGGGTTA was tested, and the “PBM E-score” value was 0.289.
In the case of GGTTGCGA, the “PBM E-score” value is reported as 0.0364.
With ATAGCAAT the “PBM E-score” value was -0.185.
AATGTTGC was tested, and the “PBM E-score” value was 0.0379.
AAGTTGCG was tested, and the “PBM E-score” value was -0.0322.
With CAGGCACG the “PBM E-score” value was -0.0111.
CCCGCTCC was tested, and the “PBM E-score” value was 0.0537.
With AGATTGGC the “PBM E-score” value was -0.0359.
AAGGCCGC was tested, and the “PBM E-score” value was -0.166.
For AGAGCAGG, the “PBM E-score” value was -0.158.
For TATCGAGA, the “PBM E-score” value was -0.0745.
With ACAAGACT the “PBM E-score” value was -0.144.
For CCCAGGGG, the “PBM E-score” value was -0.298.
With GGTAGCCA the “PBM E-score” value was 0.0206.
With CAGGATAC the “PBM E-score” value was -0.198.
For AATCATAT, the “PBM E-score” value was -0.0393.
With CTGTGTAA the “PBM E-score” value was -0.165.
With TAGGGAAA the “PBM E-score” value was -0.185.
In the case of AAGCCTCC, the “PBM E-score” value is reported as -0.152.
In the case of GTGACAAC, the “PBM E-score” value is reported as 0.00513.
In the case of CTTTCATA, the “PBM E-score” value is reported as 0.00582.
AAAATAGG was tested, and the “PBM E-score” value was 0.0861.
CCGGCGCC was tested, and the “PBM E-score” value was 0.218.
For GAGATGAA, the “PBM E-score” value was 0.0136.
GCTAGAGA was tested, and the “PBM E-score” value was -0.149.
In the case of ACGGTTCG, the “PBM E-score” value is reported as 0.173.
For CGACTCTC, the “PBM E-score” value was 0.0134.
For GAAAGACC, the “PBM E-score” value was 0.148.
In the case of CTTGATTA, the “PBM E-score” value is reported as -0.203.
With ATAGAGTG the “PBM E-score” value was 0.00353.
With CTATATCA the “PBM E-score” value was -0.0348.
With GGTGGACA the “PBM E-score” value was -0.00582.
AAATTCGG was tested, and the “PBM E-score” value was 0.389.
AAAATGTA was tested, and the “PBM E-score” value was -0.0261.
For ACGTTCGA, the “PBM E-score” value was -0.284.
For AGATGAAC, the “PBM E-score” value was -0.0339.
For ATGACCAG, the “PBM E-score” value was -0.0765.
In the case of ATGTACAC, the “PBM E-score” value is reported as -0.186.
For CCCGGGGC, the “PBM E-score” value was 0.239.
In the case of CCCTGACG, the “PBM E-score” value is reported as -0.0312.
With CACGCGGA the “PBM E-score” value was 0.227.
GAACCATC was tested, and the “PBM E-score” value was 0.0577.
With GCGGATAA the “PBM E-score” value was 0.403.
In the case of AACTCAGT, the “PBM E-score” value is reported as -0.091.
GACCAAAA was tested, and the “PBM E-score” value was -0.0214.
For TACACAAA, the “PBM E-score” value was 0.0542.
CCACCCAG was tested, and the “PBM E-score” value was -0.0329.
For AACTACAC, the “PBM E-score” value was -0.128.
For CCGCCAAA, the “PBM E-score” value was 0.12.
With AATAGCTA the “PBM E-score” value was -0.00017.
In the case of CCTGTGAA, the “PBM E-score” value is reported as -0.125.
GCTCTTAA was tested, and the “PBM E-score” value was -0.105.
In the case of GGGGTAGA, the “PBM E-score” value is reported as -0.00576.
In the case of GTATGGAA, the “PBM E-score” value is reported as -0.0916.
For GATAGTCA, the “PBM E-score” value was -0.0515.
ATCTATAA was tested, and the “PBM E-score” value was -0.0984.
For AAAGCATA, the “PBM E-score” value was 0.0507.
In the case of CATATTCC, the “PBM E-score” value is reported as 0.138.
In the case of CAGGTACA, the “PBM E-score” value is reported as -0.102.
GGGCTCCA was tested, and the “PBM E-score” value was -0.32.
CTTCGAGC was tested, and the “PBM E-score” value was 0.147.
AAAATCTC was tested, and the “PBM E-score” value was -0.0526.
For GCCAAGAC, the “PBM E-score” value was -0.268.
CTGACCAC was tested, and the “PBM E-score” value was -0.0941.
With ATTCGCCA the “PBM E-score” value was -0.0151.
